{"source": "PubChem BioAssay AID2546", "about": "(National Center for Advancing Translational Sciences (NCATS), 2010)", "note": "About 11,000 (3.5%) of roughly 310,000 compounds were called active. Inconclusive results, whose numbers are uncertain, are shown with a selection of clear calls. Calls follow the shape of the dose curve; as a rule, active = well fitted inhibition curve with a large enough effect; inconclusive = small, poorly fitted or top-dose-only effect, or effect the other way; inactive = flat fitted curve, though single readings scatter. No potency is given beside an inconclusive call; the fits are too rough. % is scaled to controls: 0 for no effect and ±100 for the full control effect; potency is read from the fitted curve at half-maximal effect; tags tell the direction and shape of the fitted curve."}
{"assay": "VP16 counterscreen qHTS for inhibitors of ROR gamma transcriptional activity;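 also: Gal4-VP16 expression switched on by copper sulfate through the metallothionein promoter; nearly all actives have a fitted effect of over 50% in size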", "conditions": "Drosophila S2 Gal4-VP16 UAS-luciferase, luminescence, 20 h; activity, negative = inhibition: at 53.6 µM (top of the series)"}
{"smiles": "CCCCc1cc(O)c(CCCC)c(O)c1", "Potency": "inconclusive [inhibitor, single point]"}
{"smiles": "CCOCCCNC1=C(Cl)C(=O)c2ccccc2C1=O", "Potency": "inconclusive [inhibitor, partial curve, poor fit]"}
{"smiles": "CN(C)c1nc(NCc2ccccc2)nc(N/N=C/c2ccccc2F)n1", "Potency": "active: 6.31 µM"}
{"smiles": "CC1=NN(c2ccc(C)c(C)c2)C(=O)/C1=C\\C=C\\c1ccc([N+](=O)[O-])o1", "Potency": "inconclusive [inhibitor, single point]"}
{"smiles": "O=c1[nH]c(Cc2cccc(C(F)(F)F)c2)nc2ccccc12", "Potency": "inconclusive [activator, full curve, poor fit]"}
{"smiles": "COc1ccc(OC)c(NC(=O)c2nc(S(=O)(=O)Cc3ccccc3)ncc2Cl)c1", "Potency": "inconclusive [inhibitor, full curve, poor fit]"}
{"smiles": "O=C(O)CCCNC(=O)OCc1ccccc1", "Potency": "active: 6.31 µM"}
{"smiles": "CCOC(=O)C1=C(C)NC(C)=C(C(=O)OCC)C1c1cccs1", "activity, negative = inhibition": "inactive: -9.6%"}
{"smiles": "NS(=O)(=O)c1ccc(CNC(=S)Nc2ccc(F)c(Cl)c2)cc1", "Potency": "inconclusive [inhibitor, single point]"}
{"smiles": "COc1ccccc1C(=O)NCCC(=O)Nc1ncccc1C", "Potency": "active: 8.91 µM"}
{"smiles": "COc1ccc2c(=O)c(C)c(-c3ccccc3)oc2c1CN(C)C", "activity, negative = inhibition": "inactive: -2.7%"}
{"smiles": "CC(C)/C(=N\\NS(=O)(=O)c1ccc(Br)cc1)c1cccs1", "activity, negative = inhibition": "inactive: 4.66% [at 10 µM]"}
{"smiles": "Cc1ccccc1NC(=S)NCCc1ccccn1", "Potency": "inconclusive [inhibitor, single point]"}
{"smiles": "COc1ccc(-c2cn(-c3ccc(Br)cc3)c3[n+]2CCS3)cc1", "Potency": "inconclusive [inhibitor, single point]"}
{"smiles": "O=C(NCCCN1CCOCC1)c1cccc(S(=O)(=O)Nc2ccccc2Cl)c1", "activity, negative = inhibition": "inactive: 2.33%"}
{"smiles": "Fc1ccccc1NC(=S)N1CCN(C/C=C/c2ccccc2)CC1", "Potency": "inconclusive [inhibitor, single point]"}
{"smiles": "Cc1cc(N2CC(C(=O)O)CC2=O)ccc1Br", "note": "(stereo not given)", "activity, negative = inhibition": "inactive: 4.78%"}
{"smiles": "COC(=O)C1CC23C=CCN4CCC5(c6ccccc6NC15C2C)C43", "note": "(stereo not given)", "activity, negative = inhibition": "inactive: -4.62%"}
{"smiles": "CC1(C)CC(O)CC(C)(C)N1CC(O)COCc1ccccc1", "note": "(stereo not given)", "activity, negative = inhibition": "inactive: -3.35%"}
{"smiles": "CCCCC(CC)CCC(CC(C)C)OS(=O)(=O)O", "note": "(stereo not given)", "activity, negative = inhibition": "inactive: 1.79%"}
{"smiles": "CCC(C)/C=C/C1=CC2=C(Cl)C(=O)C3(C)OC(=O)C(C(=O)C(C)C(C)O)C3C2=CO1", "note": "(stereo not given)", "activity, negative = inhibition": "inactive: 1.19%"}
{"smiles": "Cc1ccc(-c2nnc(N3CCN(C(=O)COc4cccc(C)c4)CC3)c3ccccc23)cc1", "Potency": "inconclusive [inhibitor, single point]"}
{"smiles": "Cc1c(Cc2ccccc2)c(=O)oc2cc(OCc3nn[nH]n3)ccc12", "activity, negative = inhibition": "inactive: 4.1%"}
{"smiles": "Cc1[nH]n(-c2ccccc2)c(=O)c1/C=N/NC(=O)c1ccc(O)cc1O", "Potency": "active: 7.08 µM"}
{"smiles": "O=C(NC1CCN(Cc2ccccc2)CC1)c1cccc(Br)c1", "activity, negative = inhibition": "inactive: 1.68%"}
{"smiles": "CC(=O)c1ccc(Nc2nc(C)cc(C)n2)cc1", "activity, negative = inhibition": "inactive: 3.2%"}
{"smiles": "Cc1ccc(N/N=C(\\C#N)C(N)=S)c(C)c1", "Potency": "inconclusive [inhibitor, single point]"}
{"smiles": "CC1=NN(c2ccccc2)C(=O)C1C(=O)c1ccc(Cl)cc1", "note": "(stereo not given)", "Potency": "inconclusive [inhibitor, single point]"}
{"smiles": "CN(C)c1ccc(/C=C2\\C(=N)N3C(=NC2=O)Sc2cc(S(C)(=O)=O)ccc23)cc1", "activity, negative = inhibition": "inactive: -2.63%"}
{"smiles": "COc1ccc(CONS(=O)(=O)c2ccc(NC(C)=O)cc2)cc1Cl", "activity, negative = inhibition": "inactive: 1.42%"}
{"smiles": "CCCCN(CC)C(=S)Nc1ccc2nc(N3CCN(C)CC3)cc(C)c2c1", "Potency": "inconclusive [inhibitor, single point]"}
{"smiles": "Cc1nnc(SCC(=O)Nc2cccc(S(=O)(=O)N(C)c3ccccc3)c2)s1", "Potency": "inconclusive [inhibitor, single point]"}
{"smiles": "COc1ccc(CCN(Cc2ccccn2)C(=S)Nc2ccccc2Cl)cc1OC", "Potency": "inconclusive [inhibitor, single point]"}
{"smiles": "Nc1c(C(=O)Nc2ccccc2Cl)nnn1-c1ccc2c(c1)OCCO2", "Potency": "inconclusive [inhibitor, full curve, poor fit]"}
{"smiles": "CSc1ccc(/C=N\\Nc2nncn2N)cc1", "Potency": "inconclusive [inhibitor, single point]"}
{"smiles": "COc1cc2c(cc1OC)C(=S)NC(C)(C)C2", "Potency": "inconclusive [inhibitor, single point]"}
{"smiles": "CC1=CC(C)(C)NC(=S)N1c1ccc2ccccc2c1", "Potency": "active: 6.31 µM"}
{"smiles": "Cc1nc(C(=O)NNC(=O)c2ccc(C(F)(F)F)cc2)cs1", "Potency": "inconclusive [inhibitor, single point]"}
{"smiles": "C[C@@H](C(=O)Nc1ccc2ccccc2c1)[C@@H]1C[C@@]1(C)[C@@H](NC(=O)Oc1ccc(F)cc1)c1ccccc1", "activity, negative = inhibition": "inactive: -5.18%"}
{"smiles": "O=C(NC(=S)NCc1cccnc1)c1ccccc1", "activity, negative = inhibition": "inactive: 9.34%"}
{"smiles": "CN1CCN(Cc2cc(COCc3ccccc3)c3cccnc3c2O)CC1", "Potency": "active: 1.26 µM"}
{"smiles": "CCc1cc(=O)oc2cc(C)cc(OC(C)C(=O)NCc3cccnc3)c12", "note": "(stereo not given)", "activity, negative = inhibition": "inactive: -5.86%"}
{"smiles": "COC(=O)c1ccccc1NC(=S)NC(=O)C1CCCCC1", "Potency": "inconclusive [inhibitor, single point]"}
{"smiles": "COc1ccc(CC(=O)N2N=C(C)CC2(O)C(F)(F)F)cc1", "note": "(stereo not given)", "Potency": "active: 8.91 µM"}
{"smiles": "Clc1ccccc1/C=C/c1nc(-c2ccccn2)no1", "Potency": "inconclusive [inhibitor, partial curve, poor fit]"}
{"smiles": "O=C(Nc1ncc(Cc2ccccc2)s1)C1CCCO1", "note": "(stereo not given)", "Potency": "inconclusive [inhibitor, single point]"}
{"smiles": "Cc1ccc(CNC(=O)COC(=O)CCCOc2ccc(Cl)cc2Cl)cc1", "Potency": "inconclusive [inhibitor, partial curve, poor fit]"}
{"smiles": "Cc1ccc(C(C)C)cc1S(=O)(=O)NCc1cccnc1", "Potency": "active: 17.8 µM"}
{"smiles": "CO[C@H]1C[C@@H]2CC[C@@H](C)[C@@](O)(O2)C(=O)C(=O)N2CCCC[C@H]2C(=O)O[C@H]([C@H](C)C[C@@H]2CC[C@@H](OCCO)[C@H](OC)C2)CC(=O)[C@H](C)/C=C(\\C)[C@@H](O)[C@@H](OC)C(=O)[C@H](C)C[C@H](C)/C=C/C=C/C=C/1C", "Potency": "inconclusive [inhibitor]"}
{"smiles": "O=C(COc1ccccc1)NNC(=S)NC(=O)c1ccccc1", "Potency": "active: 11.2 µM"}
{"smiles": "O=C(CC(=O)c1ccccc1)Nc1cc(C(F)(F)F)ccc1Cl", "Potency": "inconclusive [inhibitor, single point]"}
{"smiles": "O=C(NC(=S)NC1CCCc2ccccc21)c1ccc(F)cc1", "note": "(stereo not given)", "Potency": "active: 15.8 µM"}
{"smiles": "Cc1ccc(S(=O)(=O)Nc2ccc(SC(F)F)cc2)c(C)c1", "Potency": "inconclusive [inhibitor, single point]"}
{"smiles": "Cc1cccc2c1cnn2C(=O)Nc1ccccc1Cl", "activity, negative = inhibition": "inactive: 3.74%"}
{"smiles": "CCOC(=O)CSc1ccc(-c2nc3cc(C)c(C)cc3[nH]2)cn1", "Potency": "inconclusive [inhibitor, single point]"}
{"smiles": "CC(C)NC(=O)c1onc(CSc2cccc3ccccc23)c1C(=O)O", "Potency": "inconclusive [inhibitor, single point]"}
{"smiles": "CCOC(=O)CSc1ccc2nnc(CCNS(=O)(=O)c3ccc(C)cc3)n2n1", "activity, negative = inhibition": "inactive: -8.74%"}
{"smiles": "Cc1nc(NC(=O)c2ccccc2)sc1-c1csc(Nc2ccc(F)cc2)n1", "Potency": "inconclusive [inhibitor, single point]"}
{"smiles": "CCC(=O)NC(=S)Nc1ccc(NC(=S)NC(=O)c2ccccc2)cc1", "Potency": "inconclusive [inhibitor, partial curve]"}
{"smiles": "CC1CCC2C(=O)N(c3ccc(Cc4ccncc4)cc3)C(=O)C2C1", "note": "(stereo not given)", "Potency": "active: 6.31 µM"}
{"smiles": "O=C(CCCCCn1c(=S)[nH]c2ccsc2c1=O)NC1CCCCC1", "Potency": "inconclusive [inhibitor, single point]"}
{"smiles": "O=C(N/N=C/C=C/c1ccco1)c1cccs1", "Potency": "inconclusive [inhibitor, single point]"}
{"smiles": "CCc1ccc(NC(=O)c2sc3nc4n(c(=O)c3c2C)CCC4)cc1", "activity, negative = inhibition": "inactive: -8.65%"}
{"smiles": "COc1ccccc1/C=C/C=N/NC(=O)c1cc(-c2ccco2)[nH]n1", "Potency": "inconclusive [inhibitor, single point]"}
{"smiles": "Cc1cc(C)n(-c2ccc(C(=O)OC(C)C)cc2)n1", "activity, negative = inhibition": "inactive: 3.59%"}
{"smiles": "CCN(CC)CCn1c(=S)[nH]c2ccc(Cl)cc2c1=O", "Potency": "inconclusive [inhibitor, single point]"}
{"smiles": "COc1cc2c3c(c1)c(N=NC(N)=S)c(O)n3C(C)(C)C=C2C", "Potency": "active: 4.47 µM"}
{"smiles": "COc1ccccc1CN1C(=O)c2cccc3cccc(c23)C1=O", "activity, negative = inhibition": "inactive: 13.1%"}
{"smiles": "COc1cccc(NC(=O)C2CCN(S(=O)(=O)c3ccc4[nH]c(=O)ccc4c3)CC2)c1", "activity, negative = inhibition": "inactive: -9.68%"}
{"smiles": "Cc1ccc(OCCCCn2ccnc2)c(Cl)c1", "Potency": "inconclusive [inhibitor, single point]"}
{"smiles": "CC(=O)N(C)c1ccc(NC(=O)Nc2ccc(C)cc2)cc1", "Potency": "inconclusive [activator, full curve, poor fit]"}
{"smiles": "Cc1nn(Cc2ccc(C(=O)N3N=C(C(F)F)CC3(O)C(F)F)cc2)c(C)c1[N+](=O)[O-]", "note": "(stereo not given)", "Potency": "active: 10 µM"}
{"smiles": "CC1CCCN(CCCNS(=O)(=O)c2ccc3c(c2)CCN3C(=O)C2CC2)C1", "note": "(stereo not given)", "activity, negative = inhibition": "inactive: -1.31%"}
{"smiles": "O=C(c1ccc([N+](=O)[O-])cc1)N1CCC(n2nnc3cc(F)ccc32)CC1", "Potency": "inconclusive [inhibitor, single point]"}
{"smiles": "COc1ccc(NC(=S)N2CCc3ccccc3C2)cc1", "Potency": "inconclusive [inhibitor, single point]"}
